{
  "source": "PubChem BioAssay AID686971",
  "about": "(National Center for Advancing Translational Sciences (NCATS), 2013)",
  "note": "Hit rate of the full screen: of about 360,000 compounds, about 7,500 (2.1%) were called active. Inconclusive results, whose numbers are uncertain, are shown with a selection of clear calls. Calls come from the whole dose curve; as a rule, active = well fitted cell-killing curve with a large enough effect; inconclusive = small, poorly fitted or top-dose-only effect, or effect the other way, or another doubt; inactive = no such curve, though single readings can be large or run the other way. No potency is given beside an inconclusive call; the fits are too rough. Potency is the fitted concentration of half-maximal effect; tags give direction and shape of the fitted curve.",
  "data": [
    {"assay": "qHTS for induction of synthetic lethality in tumor cells producing 2HG: qHTS for the HT-1080-IDH1KD cell line;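 for activity, negative = toxicity: 0% = DMSO wells and -100% = cell-free medium wells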", "details": "HT-1080 IDH1 knockdown viability, ATP luminescence, 48 h; activity, negative = toxicity: at 46.1 µM (top of the series) unless noted", "procedure,_shortened": "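% activity derives from luminescence (CellTiter-Glo), normalised to DMSO and no-cell wells. HT-1080-IDH1KD cells, 750/well, had 48 h compound exposure at 37 °C.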", "values": [
      {"molecule": "CCCCCc1nnc(NC(=O)NS(=O)(=O)c2ccc(C)cc2)s1", "Potency": "inactive"},
      {"molecule": "Cc1nnc(C)c2c(C)n(C(c3ccccc3)c3ccccc3)c(C)c12", "Potency": "inconclusive [cytotoxic, partial curve]"},
      {"molecule": "Cc1cccnc1C(NC(=O)C1CCN(CCCOc2ccc(F)cc2)CC1)c1ccccc1", "note": "(configuration not stated)", "Potency": "inconclusive [cytotoxic, single point]"},
      {"molecule": "O=C(/C=C/c1ccccc1)NCCC1=CCCCC1", "activity, negative = toxicity": "inconclusive: 37.4%"},
      {"molecule": "CC1(C)CCCN(C(=O)N2c3ccccc3Sc3ccccc32)C1", "Potency": "inconclusive [cytotoxic, single point]"},
      {"molecule": "O=C(NCC1CCN(Cc2cccc(Cl)c2)CC1)Nc1ccc(Cl)cc1", "Potency": "inconclusive [cytotoxic, single point]"},
      {"molecule": "Cc1ccc(O)c(Sc2cc(C)ccc2O)c1", "Potency": "inconclusive [cytotoxic, partial curve]"},
      {"molecule": "O=C(c1c(Cl)nc2sccn12)N1CCN(c2cccc(Cl)c2)CC1", "Potency": "active: 3.26 µM"},
      {"molecule": "CCCOC(=O)c1ccc(Cl)c(NC(=O)c2ccc(-c3ccccc3)cc2)c1", "Potency": "inactive"},
      {"molecule": "NS(=O)(=O)c1ccc(N=Nc2ccc(O)c3ncccc23)cc1", "Potency": "active: 23.1 µM"},
      {"molecule": "C(=N\\Nc1ncnc2nc[nH]c12)/c1cccs1", "Potency": "inactive"},
      {"molecule": "CCN(CC)S(=O)(=O)c1ccc(S(=O)(=O)Nc2cc3c(cc2C(C)=O)OCO3)cc1", "activity, negative = toxicity": "inactive: 4.19% [at 9.24 µM]"},
      {"molecule": "COc1ccccc1N1CCN(C(=O)C2c3ccccc3Oc3ccccc32)CC1", "Potency": "active: 1.84 µM"},
      {"molecule": "O=C(OCC(=O)N1CCN(C(=O)c2ccco2)CC1)c1cc(F)c(F)cc1Cl", "Potency": "inactive"},
      {"molecule": "OC(c1cccc(Cl)c1)c1nc(-c2ccc3c(c2)OCO3)cs1", "note": "(configuration not stated)", "Potency": "inconclusive [cytotoxic, single point]"},
      {"molecule": "CC1(Cc2ccc(OC(F)(F)F)cc2)C(=O)Nc2ccc(OC(F)(F)F)cc21", "note": "(configuration not stated)", "Potency": "inconclusive [cytotoxic, single point]"},
      {"molecule": "Cc1sc2ncnc(Sc3nnnn3-c3ccc(Cl)cc3)c2c1C", "Potency": "inconclusive [cytotoxic, single point]"},
      {"molecule": "Cc1ccc2c(C)c(C(=O)N3CCCCC3CO)oc2c1C", "note": "(configuration not stated)", "Potency": "inactive"},
      {"molecule": "CCOc1ccccc1CN1CCN(CC2=Cc3cc(OC)ccc3OC2)CC1CCO", "note": "(configuration not stated)", "Potency": "inactive"},
      {"molecule": "COc1cc(NC(=O)c2cc(OC)c(OC)c(OC)c2)ccc1NC(=O)c1cccs1", "Potency": "inconclusive [cytotoxic, single point]"},
      {"molecule": "O=C(Nc1cccnc1)/C(N=Nc1cccnc1)=C(\\O)c1ccccc1", "Potency": "inactive"},
      {"molecule": "COc1ccc(-n2c(-c3ccc(Br)cc3)n[nH]c2=S)cc1", "Potency": "inactive"},
      {"molecule": "COc1ccc2ccccc2c1C(=O)/C=C\\c1ccoc1", "Potency": "inactive"},
      {"molecule": "CC1CCCN(C(=S)Nc2ccc(F)cc2)C1", "note": "(configuration not stated)", "Potency": "inactive"},
      {"molecule": "Cc1c(Cl)cccc1NC(=S)NCCc1ccc(C(F)(F)F)cc1", "Potency": "inconclusive [cytotoxic, single point]"},
      {"molecule": "COc1cccc(NC(=O)C(=O)c2cn(CC(=O)N3CCCC3)c3ccccc23)c1", "Potency": "inactive"},
      {"molecule": "Cc1nonc1C(=O)N/N=C/c1ccc(O)cc1O", "Potency": "active: 2.06 µM"},
      {"molecule": "CC1(C(=O)Nc2cccc(C#N)c2)CCN1C(=O)Cc1ccc(-c2ccccc2)cc1", "note": "(configuration not stated)", "Potency": "inconclusive [cytotoxic, single point]"},
      {"molecule": "O=C(Nc1ccc(S(=O)(=O)NCc2ccco2)cc1)c1ccc2ccccc2n1", "Potency": "inactive"},
      {"molecule": "CN(C(=O)c1cccc(Nc2ccc(-c3ccc4c(c3)OCCO4)nn2)c1)C1CCCCC1", "Potency": "active: 14.6 µM"},
      {"molecule": "Cc1ccc(NC(=O)COc2ccc(CCO)cc2-n2nc3ccccc3n2)cc1C", "Potency": "inconclusive [cytotoxic, single point]"},
      {"molecule": "c1ccc2c(c1)Cn1c-2nc2ccccc21", "Potency": "inconclusive [cytotoxic, single point]"},
      {"molecule": "O=C(NCCCN1CCCC1)c1ccc2c(c1)N(Cc1ccccc1)CCS2", "Potency": "inconclusive [cytotoxic, single point]"},
      {"molecule": "Cc1onc(-c2c(Cl)cccc2Cl)c1C(=O)Nc1nc(C(C)(C)C)cs1", "Potency": "inconclusive [cytotoxic, partial curve]"},
      {"molecule": "CCN1/C(=C2/SC(=S)N(C)C2=O)C=Cc2cc(C)ccc21", "Potency": "inactive"},
      {"molecule": "O=C1NC[C@H](c2ccccc2)OC(=O)[C@H](Cc2ccc(F)cc2)C/C=C\\C[C@H]1CC(=O)N(CCO)Cc1ccccc1", "Potency": "inconclusive [cytotoxic, partial curve]"},
      {"molecule": "NC(c1ccccc1)c1csc(NC(=O)NCCc2ccccc2)n1", "note": "(configuration not stated)", "Potency": "inconclusive [cytotoxic, single point]"},
      {"molecule": "Cc1cc(O)cc2c1C1CCC3(C)C(=O)CCC3C1C=C2", "note": "(configuration not stated)", "Potency": "inconclusive [cytotoxic, partial curve, poor fit]"},
      {"molecule": "COc1ccccc1-c1cc(NC=O)c2ncc(-c3cccc(C(=O)N(C)C)c3)n2c1", "Potency": "inconclusive [cytotoxic, full curve, poor fit]"},
      {"molecule": "CC(C)CNC(=S)NNC(=O)c1csc2c1CCCC2", "activity, negative = toxicity": "inconclusive: -5.07% [cytotoxic]"},
      {"molecule": "CCCCCCCN(C(=O)CCl)c1ccccc1C", "Potency": "inconclusive [cytotoxic, single point]"},
      {"molecule": "O=C(CCCCCn1c(=S)[nH]c2ccc(N3CCOCC3)cc2c1=O)NCc1ccc(Cl)cc1", "Potency": "inactive"},
      {"molecule": "COc1ccc(C2=CC(c3cc(OC)c(OC)c(OC)c3)NC(=S)N2)cc1", "note": "(configuration not stated)", "Potency": "inconclusive [cytotoxic, single point]"},
      {"molecule": "CC(C)(c1ccccc1)c1ccc(OCCN2CCCC2)cc1", "Potency": "inconclusive [cytotoxic, single point]"},
      {"molecule": "Cn1c(NCCCN2CCOCC2)nc2c1c(=O)n(Cc1ccc(Cl)cc1)c(=O)n2C", "Potency": "inconclusive [cytotoxic, single point]"},
      {"molecule": "NC(CCc1ccccc1)c1csc(Nc2nccc(C(F)(F)F)n2)n1", "note": "(configuration not stated)", "Potency": "inconclusive [cytotoxic, single point]"},
      {"molecule": "CCCCCCCCCCCCCCCCCCNc1ccn(C2OC(COP(=O)(O)OCC3OC(n4cc(F)c(=O)[nH]c4=O)CC3O)C(O)C2O)c(=O)n1", "note": "(configuration not stated)", "Potency": "active: 10.3 µM"}
    ]}
  ]
}
